Measurements taken from paper PMC7128310, “Negative Regulation of TLR Signaling by BCAP Requires Dimerization of Its DBB Domain” (The Journal of Immunology Author Choice, 2020).
Results are given in words; binding and its absence hold for the method and conditions named. For part of these data: Binding seen in cells or lysates may run through a third protein. Some results given as binding are weak or reduced against the parent protein; the word gives no strength. For part of these data: Where a sequence is shown, tags or fusion partners need not be part of it.

Chains of the proteins cited; added tags and fusions are not shown. Lines headed by an entry give the natural chain unless they say otherwise; changes in a name come on top.
UniProt P58753: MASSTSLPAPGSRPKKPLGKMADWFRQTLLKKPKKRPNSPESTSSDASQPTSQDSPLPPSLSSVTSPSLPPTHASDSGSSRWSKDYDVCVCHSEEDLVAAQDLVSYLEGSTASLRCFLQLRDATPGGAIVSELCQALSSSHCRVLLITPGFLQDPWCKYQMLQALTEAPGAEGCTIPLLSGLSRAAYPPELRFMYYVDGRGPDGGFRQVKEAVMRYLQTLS
UniProt Q99836: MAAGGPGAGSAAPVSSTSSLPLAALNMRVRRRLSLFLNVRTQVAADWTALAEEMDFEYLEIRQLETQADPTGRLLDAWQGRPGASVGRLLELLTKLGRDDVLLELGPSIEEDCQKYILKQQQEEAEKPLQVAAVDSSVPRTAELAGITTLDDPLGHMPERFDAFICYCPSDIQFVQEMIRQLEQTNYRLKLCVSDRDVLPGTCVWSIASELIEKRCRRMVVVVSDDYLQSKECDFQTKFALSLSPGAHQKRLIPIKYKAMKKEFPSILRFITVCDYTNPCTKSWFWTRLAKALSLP

Key:
[1] = target: T1, BCAP(FL), full-length BCAP (2-805) (human) (UniProt Q6ZUJ8); assay: SEC; analytical size exclusion chromatography of purified, unpolymerized MAL TIR domain and BCAP(FL) after incubation at 30°C for 1 h; both purified
T1 sequence: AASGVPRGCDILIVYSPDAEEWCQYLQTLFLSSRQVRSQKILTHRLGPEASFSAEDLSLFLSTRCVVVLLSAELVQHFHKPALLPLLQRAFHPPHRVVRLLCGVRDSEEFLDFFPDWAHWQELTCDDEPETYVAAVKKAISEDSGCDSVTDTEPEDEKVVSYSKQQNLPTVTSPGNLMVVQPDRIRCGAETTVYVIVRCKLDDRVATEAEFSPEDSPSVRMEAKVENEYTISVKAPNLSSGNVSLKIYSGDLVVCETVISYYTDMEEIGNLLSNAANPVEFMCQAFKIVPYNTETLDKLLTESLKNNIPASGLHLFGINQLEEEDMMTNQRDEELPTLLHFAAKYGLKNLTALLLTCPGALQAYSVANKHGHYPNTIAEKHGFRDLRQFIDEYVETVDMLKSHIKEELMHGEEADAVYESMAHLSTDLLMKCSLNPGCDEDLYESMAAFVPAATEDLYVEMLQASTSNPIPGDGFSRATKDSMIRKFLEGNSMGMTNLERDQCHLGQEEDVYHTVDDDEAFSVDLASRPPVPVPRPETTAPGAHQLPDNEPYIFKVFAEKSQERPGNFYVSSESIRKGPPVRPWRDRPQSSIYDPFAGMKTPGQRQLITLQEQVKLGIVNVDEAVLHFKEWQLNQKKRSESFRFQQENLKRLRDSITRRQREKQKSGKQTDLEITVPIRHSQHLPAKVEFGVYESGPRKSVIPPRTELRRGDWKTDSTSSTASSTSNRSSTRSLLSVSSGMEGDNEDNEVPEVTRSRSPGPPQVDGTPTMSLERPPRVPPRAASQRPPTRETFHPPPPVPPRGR

MAL TIR domain (79-221) = MAL TIR domain (79-221) (UniProt P58753); assay: co-sedimentation; filament formation assay: MAL TIR alone or with BCAP constructs (molar ratio 1:10, from 10 μM stocks), 30°C for 1 h; 16,000 x g for 10 min; supernatant and pellet on SDS-PAGE, Coomassie; both purified
[2] = target: T2, FLAG-tagged BCAP TIR domain (1-145) (human) (UniProt Q6ZUJ8); assay: co-IP; HEK293T co-transfected with FLAG-tagged BCAP constructs and Myc-MAL or Myc-MyD88; lysis 24 h after transfection in 20 mM Tris, 150 mM NaCl, 1 mM EDTA, 0.5% Nonidet P-40, pH 8; precipitation with anti-FLAG M2 beads, blot with anti-Myc
T2 sequence: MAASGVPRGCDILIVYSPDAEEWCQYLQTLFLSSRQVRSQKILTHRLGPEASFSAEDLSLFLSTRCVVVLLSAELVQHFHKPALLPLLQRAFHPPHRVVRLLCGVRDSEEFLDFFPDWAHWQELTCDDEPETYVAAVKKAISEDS

[3] = target: T3, FLAG-tagged BCAP TIR-DBB (1-311) (human) (UniProt Q6ZUJ8); assay: as above
T3 sequence: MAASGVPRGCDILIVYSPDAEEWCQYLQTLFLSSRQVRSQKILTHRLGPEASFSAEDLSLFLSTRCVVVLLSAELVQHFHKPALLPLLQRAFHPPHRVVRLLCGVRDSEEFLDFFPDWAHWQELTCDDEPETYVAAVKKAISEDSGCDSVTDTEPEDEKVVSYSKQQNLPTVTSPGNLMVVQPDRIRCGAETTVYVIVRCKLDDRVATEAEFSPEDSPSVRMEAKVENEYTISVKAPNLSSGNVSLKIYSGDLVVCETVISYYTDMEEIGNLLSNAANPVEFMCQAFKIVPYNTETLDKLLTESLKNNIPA

[4] = target: T4, FLAG-tagged BCAP TIR-DBB-ANK (1-426) (human) (UniProt Q6ZUJ8); assay: as above
T4 sequence: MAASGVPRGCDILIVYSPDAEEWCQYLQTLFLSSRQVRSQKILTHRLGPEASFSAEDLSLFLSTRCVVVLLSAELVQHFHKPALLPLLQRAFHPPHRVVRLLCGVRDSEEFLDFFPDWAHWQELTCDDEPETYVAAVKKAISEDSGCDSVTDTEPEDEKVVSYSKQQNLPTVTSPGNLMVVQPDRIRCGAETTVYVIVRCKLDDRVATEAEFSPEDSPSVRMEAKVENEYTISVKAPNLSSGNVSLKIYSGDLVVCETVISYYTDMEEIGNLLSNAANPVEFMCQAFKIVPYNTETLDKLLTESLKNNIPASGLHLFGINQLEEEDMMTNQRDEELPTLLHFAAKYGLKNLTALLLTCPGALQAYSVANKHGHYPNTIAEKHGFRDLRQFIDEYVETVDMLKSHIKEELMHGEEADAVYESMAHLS

[5] = target: T5, FLAG-tagged full-length BCAP (human) (UniProt Q6ZUJ8); assay: as above
T5 sequence: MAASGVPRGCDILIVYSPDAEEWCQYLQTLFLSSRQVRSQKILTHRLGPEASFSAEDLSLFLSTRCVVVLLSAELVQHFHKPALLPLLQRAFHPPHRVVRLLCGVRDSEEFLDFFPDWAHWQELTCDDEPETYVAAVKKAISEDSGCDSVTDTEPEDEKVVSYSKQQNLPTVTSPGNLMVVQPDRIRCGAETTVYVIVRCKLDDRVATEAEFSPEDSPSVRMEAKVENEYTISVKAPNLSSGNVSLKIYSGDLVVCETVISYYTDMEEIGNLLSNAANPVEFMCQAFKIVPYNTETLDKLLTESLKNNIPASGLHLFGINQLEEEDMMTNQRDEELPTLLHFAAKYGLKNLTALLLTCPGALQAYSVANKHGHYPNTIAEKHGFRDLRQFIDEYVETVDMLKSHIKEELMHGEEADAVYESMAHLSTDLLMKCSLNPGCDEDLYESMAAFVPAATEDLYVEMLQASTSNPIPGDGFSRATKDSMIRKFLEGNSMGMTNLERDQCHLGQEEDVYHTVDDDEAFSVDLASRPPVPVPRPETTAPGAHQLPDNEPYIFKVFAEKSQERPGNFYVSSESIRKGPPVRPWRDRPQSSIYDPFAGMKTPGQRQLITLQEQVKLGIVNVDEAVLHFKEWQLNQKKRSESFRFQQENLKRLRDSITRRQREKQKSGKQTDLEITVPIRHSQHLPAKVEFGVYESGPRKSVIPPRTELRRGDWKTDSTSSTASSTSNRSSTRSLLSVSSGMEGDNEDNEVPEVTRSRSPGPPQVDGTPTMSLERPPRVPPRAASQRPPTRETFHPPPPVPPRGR

binding [1] | binding (MAL TIR domain (79-221)) | binding [2] | binding [3] | binding [4] | binding [5] | Substance
no binding | binds | – | – | – | – | MAL TIR domain (79-221) (from UniProt P58753 79-221) (domain or fragment)
– | – | binds | binds | binds | binds | Myc-tagged MAL (from UniProt P58753 1-221)
– | – | – | binds | binds | binds | Myc-tagged MyD88 (from UniProt Q99836 1-296)
